# Where “and” joins values, the source holds several entries; their conditions need not be identical. Equal entries are not always repeated. The inconclusive results got no clear call from the source; some entries with a clear call stand among them for comparison. Where the call is inconclusive, the potency comes from a doubtful curve fit. Calls of active or inactive are those of the source. Calls follow the shape of the dose curve; as a rule, active = well fitted cell-killing curve with a large enough effect; inconclusive = small, poorly fitted or top-dose-only effect, or effect the other way; inactive = no such curve, though single readings can be large or run the other way.
# Assay: Viability qHTS for spleen associated tyrosine kinase inhibitor (SYKi) drug resistant MV4-11 cells (AID 1963824); also: nearly all actives have a fitted effect of over 35% in size
# Settings: SYKi-resistant MV4-11 viability, CellTiter-Glo, 72 h; series mostly up to 45 µM; viability, % of control: at the top concentration
# Method in brief: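 SYK-inhibitor-resistant MV4-11 AML cells were seeded at 500 per well onto compound and cultured 72 hours (37 °C, 5% CO2). CellTiter-Glo was then added, and after 10 min at room temperature, luminescence gave viability.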
# Potency is read from the fitted curve at half-maximal effect; tags tell the direction and shape of the fitted curve.
SMILES,"viability, % of control",Potency
Nc1ccc(Cl)cc1,inactive: 102% [at 91.9 µM],
COC[C@]12CN(C)C3C4[C@H](OC)[C@H]1C3(C(OC)C[C@H]2O)[C@H]1C[C@@]2(O)[C@H](OC(=O)c3ccccc3)[C@@H]1[C@]4(O)[C@@H](O)[C@@H]2OC (some centres undefined),inactive: 77.7%,
CCOC(=O)c1ccnc2cc(C(OCCN3CCCCC3)c3ccccc3Cl)sc12 (centres undefined),,"inconclusive: 20.6 µM [cytotoxic, single point]"
O=c1[nH]c2ccccc2n1C1CCNCC1,inactive: 98.5%,
CC1Sc2c(C(=O)O)c(=O)c3cc(F)c(N4CCNCC4)cc3n21 (centres undefined),,"inconclusive: 0.0084 µM [rising, full curve]"
OC(O)C(Cl)(Cl)Cl,inactive: 72.3%,
CCN(CC)C(=O)N[C@@H]1C=C2c3cccc4[nH]cc(c34)C[C@@H]2N(C)C1,,"inconclusive: 33.5 µM [cytotoxic, single point]"
C/C=C(\C)C(=O)OC1CC2C(CC=C3CC(OC4CC(OC)C(OC5CC(OC)C(OC6CC(OC)C(OC7CC(OC)C(O)C(C)O7)C(C)O6)C(C)O5)C(C)O4)CCC32C)C2(O)CCC(C(C)=O)C12C (centres undefined),,"inconclusive: 3.48 µM [cytotoxic, single point]"
C=C(CO)C(=O)O[C@H]1C/C(C)=C/CC/C(CO)=C/[C@H]2OC(=O)C(=C)[C@H]12,inactive: 78.5%,
COc1cc(CCNCc2ccccc2O)c(OC)cc1C#N,,"inconclusive: 18.4 µM [cytotoxic, single point]"
N#Cc1ccc([C@H]2CCCC[C@H]2O)cc1C(F)(F)F,,"inconclusive: 23.1 µM [cytotoxic, partial curve]"
CC[C@@H](CO)NC(=O)[C@@H]1C=C2c3cccc4[nH]cc(c34)C[C@H]2N(C)C1,,"inconclusive: 13.3 µM [cytotoxic, partial curve]"
CC(CCc1ccc(O)cc1)O[C@@H]1O[C@H](CO[C@H]2OC[C@](O)(CO)[C@H]2O)[C@@H](O)[C@H](O)[C@H]1O (some centres undefined),inactive: 102% [at 17.3 µM],
CC[C@H]1C2CC3[C@@H]4N(C)c5ccccc5[C@]45C[C@@H]([C@H]2[C@H]5O)N3[C@H]1O,,"inconclusive: 10.1 µM [cytotoxic, partial curve, poor fit]"
CC(C)(C)NCC(O)c1cc(Cl)c(N)c(Cl)c1 (centres undefined),,"inconclusive: 3.35 µM [cytotoxic, partial curve, poor fit]"
COC1=CC(=O)O[C@@H](CCc2ccccc2)C1,,"inconclusive: 14.6 µM [cytotoxic, single point]"
CC(=O)C1CCC2C3CCC4C[C@@H](O)CCC4(C)C3CCC12C (some centres undefined),,active: 14.6 µM
COc1ccc2c3c([nH]c2c1)C(C=C(C)C)N1C(=O)C2CCCN2C(=O)C1C3 (centres undefined),,"inconclusive: 14.3 µM [cytotoxic, single point]"
CCN(CC)CCN1C(=O)CN=C(c2ccccc2F)c2cc(Cl)ccc21,,"inconclusive: 33.5 µM [cytotoxic, single point]"
CCN[C@@H](C)Cc1cccc(C(F)(F)F)c1,,"inconclusive: 0.0047 µM [rising, full curve]"

SMILES,"viability, % of control",Potency
O=C1NCN(c2ccccc2)C12CCN(CC1COc3ccccc3O1)CC2 (centres undefined),,"inconclusive: 7.5 µM [cytotoxic, partial curve, poor fit]"
CCC1NC(=O)C2C(Cl)C(Cl)CN2C(=O)C(CC)NC(=O)CC(c2ccccc2)NC(=O)C(CO)NC1=O (centres undefined),,"inconclusive: 12.6 µM [cytotoxic, single point]"
Fc1cc(F)c2c(c1)[C@H]1C=CC[C@H]1C(c1cccnc1)N2 (some centres undefined),,active: 3.66 µM
C[C@]12CCC(=O)C(O)=C1CC[C@@H]1[C@@H]2CC[C@]2(C)C(=O)CC[C@@H]12,,"inconclusive: 26.6 µM [cytotoxic, single point] and inconclusive: 42.8 µM [cytotoxic, partial curve]"
COC(=O)[C@@]1(C)C(=O)C=C[C@]2(C)c3c(O)cc(C(C)C)cc3[C@H](O)[C@@H](OC(C)=O)C12 (some centres undefined),,active: 8.93 µM
CC1CCCCCC(=O)c2c(O)cc(O)cc2CC(=O)O1 (centres undefined),,"inconclusive: 9.2 µM [cytotoxic, partial curve]"
COc1cc(N)c(Cl)cc1C(=O)NC1CN2CCC1CC2 (centres undefined),inactive: 97%,
C#CC(O)(C=CCl)CC (centres undefined),,"inconclusive: 0.0841 µM [cytotoxic, full curve, poor fit]"
CC[C@H](C)[C@H](NC(=O)[C@H]1CCCCN1C)C(=O)N(COC(=O)CC(C)C)[C@H](C[C@@H](OC(C)=O)c1nc(C(=O)N[C@@H](Cc2ccc(O)cc2)C[C@H](C)C(=O)O)cs1)C(C)C,,active: 0.0004 µM
C[C@]12CC[C@H]3[C@@H](CCC4=CC(=O)CC[C@@H]43)[C@@H]1CC[C@@H]2OC(=O)CCC1CCCCC1,,"inconclusive: 13.3 µM [cytotoxic, partial curve]"
CC(C)(O)[C@H]1O[C@H]2CC[C@@]3(C)[C@@](O)(CC[C@H]4Cc5c([nH]c6ccccc56)[C@@]43C)C2=CC1=O,,"inconclusive: 10 µM [cytotoxic, partial curve]"
C=CC/C=C\C/C=C\CCCCCCCc1cc(O)cc(O)c1,,"inconclusive: 10.1 µM [cytotoxic, partial curve]"
NCc1cccnc1,inactive: 84%,
C=C[C@H]1CN2CCC1C[C@@H]2[C@@H](O)c1ccnc2ccccc12 (some centres undefined),,"inconclusive: 20.9 µM [cytotoxic, partial curve]"
COc1ccc2[nH]c(-c3ccccc3)c(CCN(C)C)c2c1,,"inconclusive: 20.6 µM [cytotoxic, single point]"
O=C1CN=C(c2ccccc2)c2cc([N+](=O)[O-])ccc2N1,,"inconclusive: 13.3 µM [cytotoxic, partial curve, poor fit]"
COc1c(C(C)C)cc2c(c1O)[C@@]1(C(=O)O)CCCC(C)(C)C1CC2 (some centres undefined),,"inconclusive: 11.4 µM [cytotoxic, partial curve]"
Cc1ccc2c(c1)[C@H]1CN(C)CC[C@H]1N2C(=O)CSc1nnnn1-c1ccc(Cl)cc1,inactive: 108%,
C=CCC1([C@H](C)CCC)C(=O)NC(=O)NC1=O,,"inconclusive: 48.1 µM [cytotoxic, single point]"
